Experimental data published in the supplement of paper PMC11417369.
The other results are listed elsewhere or left out.

The sequences below were run on PfHDP1 homeodomain (GST-tagged) (assay: gcPBM binding intensity (ln(normalized median fluorescence intensity)); higher = stronger DNA binding).
Procedure, shortened: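 Alexa488 anti-GST antibody, scanned at 488 nm, detected GST-tagged P. falciparum DNA-binding domains that had been expressed in E. coli and incubated for 1 h on an Agilent 4 × 180k array. The array carried primer-extended double-stranded 36-bp intergenic genomic probes and negative controls. Binding intensity is the highest Masliner-normalised natural-log median intensity across replicate spots of either orientation of each probe.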

Sequence	gcPBM binding intensity (ln)
AAATAAATATATATATGTACATACAAATACACGGTA [XGTACX_site8510]	6.93
AAGAAAAATGTCATATGATATCATATATTTTATAAT [TGCATGCA_negctrl_site296]	6.44
ATATAATATTGAGTTTGTACATATATATATGAAGAT [XGTACX_site4444]	6.64
AATTATGCATTTGTCACACATATATATTACACTTGC [CACACA_site5324]	6.96
TAGCCAAAATATAATTTACACACTTATTAAATAATT [CACACA_site7963]	6.25
AAAAAAAAAAAAAAATGTACATTATACACATTATAT [XGTACX_site6824]	6.99
ATAATATATATTAATACACACACACCGATATATATA [CACACA_site9261]	7.26
GACCAATACTTTAAAAGTACAAACCTTATTTTATTT [XGTACX_site2718]	6.45
AAACAAATGTACAAAGTGCATATTTTTTTCAAAAGG	7.84
ACATATGTATAATAATGTACGCATTAAATATAATTA [XGTACX_site7851]	6.27
AAAAAAAAATAAAATAAAATAAAATAAAATAATATA [CACACA_negctrl_site1798]	6.26
TATATAAATAGACACACACACACATATAAATAAATA [CACACA_site7855]	7.01
TTTCAATGCATAAAAGTGCGCAATAATTTAAAGATC	8.09
AGGAGGATATTACACAGTACCCAGGAAATCTACGGA [XGTACX_site4878]	6.32
TATTTTATAAATACAAGTAAAATTAAATATATAATA [XGTACX_negctrl_site221]	6.14
TTGTACTACAATCCTTTATTTATTTAAACCTGTATG [CACACA_negctrl_site428]	6.42
TTTTAAAGAAAAAAATGTACAAAATTTTTATTTTAA [XGTACX_site1496]	5.85
AATGTGATAATATACACACACGCATATATATATATA [CACACA_site323]	9.36
CTGTGTAATTTAAATTGTACGTTTGAAAAAAATAAA [XGTACX_site5667]	6.58
AAAACACTTATGGATTGTACAATAAAAATTATATTA [XGTACX_site7042]	6.54
TATGTGAATATAATCACACACAATACGGAAAGAGAC [CACACA_site7311]	8.1
TTTTTTTTTTATAAGGCACACATGAATATTTATACA [CACACA_site1316]	6.38
TATATGTAATATTATACATGCATACATAATATATAT [TGCATGCA_site558]	6.52

Sequence	gcPBM binding intensity (ln)
ACCCACGTAAATTAAGCATGCCTTCCGTTATATTTA [TGCATGCA_site365]	6.98
TTTTACTAAATATATACACACATTATGCATATATAT [CACACA_site3287]	7.04
TAAATCATGGGATAAGCATGCGCGCACATGTTTGTT [TGCATGCA_site768]	7.12
TTTATTTATTAAGAATGTACATGTATTTGTTAAATA [XGTACX_site4465]	6.1
AAAAGGAATTATAGGAAATAAATATATACAAATATA [TGCATGCA_negctrl_site528]	6.3
CCATTTGATAATAATGCACACCACATATATTTATAT [CACACA_site9002]	10.1
CGATTTTTTAAGTTTGTGCACTTAAAAACTATAACA	9.61
TATTTCAAAATAAAATAAAATATATATATATGTATA [XGTACX_negctrl_site416]	6.7
TATATGTCAATATCTACACACATATAGGTAATTATT [CACACA_site7475]	6.35
TATACTATACAACACATACACACAAAAAAAAAAAAA [CACACA_site537]	6.57
TTCTGTGTGTATTGGCGTACAATTATTTTGCCTACA [XGTACX_site205]	6.8
ACATTCACAAAATTTTGTACACATATATATATATAT [XGTACX_site3518]	9.43
GTATTATCTGCTTTTTGTACACATATATTTAAAAAA [XGTACX_site7603]	7.34
AAGGAGCCTATGAACACACACATGTACATATATTAA [CACACA_site4084]	6.52
ATACTATTATATATATGTACATATATATGATGCTCT [XGTACX_site1771]	8.41
TTATAATATATATGTAGTACTGTTTTTTTCTATTTT [XGTACX_site7749]	6.64
TGTACAAATATGTACACACACACATATATATATATA [CACACA_site584]	9.36
TATTATTTTAAAAATGCATGTTCATATGAAATAATA [TGCATGCA_site969]	6.94
TTCGTTCTTTTATGCACACTCAACATATAAATTAAA [CACACA_site1209]	10.1
ATATGACGTAGTGGTGTACACACATGGTACCTTTAT [CACACA_site8436]	7.46
AGTAAATAATTATATACATGCATTTACTAATATTTA [TGCATGCA_site952]	6.44
AATATATATTTATGTACACACTCCAATACAGATACA [CACACA_site5481]	6.91
